According to PubChem BioAssay AID686979 (National Center for Advancing Translational Sciences (NCATS), 2013):
“And” between values parts separate entries of the source, which are not always exact repeats. Equal entries are not always repeated. Screen size: about 420,000 compounds; about 50,000 (12%) were called active. Inconclusive results, whose numbers are uncertain, are shown with a selection of clear calls. The call rests on the fitted dose curve; in most records, active means well fitted inhibition curve with a large enough effect; inconclusive means small, poorly fitted or top-dose-only effect; inactive means flat fitted curve, though single readings scatter. Where the call is inconclusive, the potency comes from a doubtful curve fit.

test: qHTS for Inhibitors of human tyrosyl-DNA phosphodiesterase 1 (TDP1): qHTS in cells in presence of CPT; details: chicken DT40 Tdp1-/-;hTDP1 cells + 20 nM CPT, ATP luminescence, 48 h; activity change, negative = growth inhibition: at 46.2 µM (top of the series) unless noted; further: nearly all actives have a fitted effect of over 55% in size
Method in brief: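 Cell growth measured by CellTiter-Glo luminescence after a minimum 48 h, 37 C compound exposure with 20 nM CPT in Tdp1-knockout DT40 cells stably expressing hTDP1, seeded 400/well; qHTS titration format.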
On the % scale 0 is the no-effect control and ±100 the full control effect; potency means the concentration at half of the fitted maximal effect; tags describe the fitted curve by direction and shape.

SMILES | Potency | activity change, negative = growth inhibition
CCOc1ccc(CNCCc2ccc3c(c2)OCO3)cc1 | inactive | 
O=[N+]([O-])c1ccc(N2CCCC(C(F)(F)F)C2)c2ccncc12 (centres undefined) | active: 13 µM | 
CCS(=O)(=O)CCSP(=O)(OC)OC | inactive | 
CCOc1ccccc1CNCCc1ccc2c(c1)OCO2 | inconclusive: 25.9 µM [inhibitor, single point] | 
Cc1ccc(-n2c(CNCc3ccc(F)cc3)nc3ccccc3c2=O)cc1 | inconclusive: 16.4 µM [inhibitor, partial curve, poor fit] | 
O=C(c1ccc2c(=O)n(Cc3ccc4c(c3)OCO4)c(=S)[nH]c2c1)N1CCC2(CC1)OCCO2 | active: 23.1 µM | 
CN(C)C(=O)CCSC(SCCC(=O)O)c1cccc(/C=C/c2ccc3ccc(Cl)cc3n2)c1 (centres undefined) | inconclusive: 29.9 µM [inhibitor, single point] | 
CCOC(=O)C1(c2ccccc2)CCN(CC(=O)c2ccc(NC(C)=O)cc2)CC1 | inconclusive: 25.9 µM [inhibitor, single point] | 
CCOC(=O)c1cccc(NC(=O)c2cnc(N3CCCCC3)c3ccccc23)c1 | active: 18.4 µM | 
CN1C(=O)NC(=O)/C(=C/c2ccc(C(=O)O)cc2)C1=O | inconclusive: 29.1 µM [inhibitor, single point] | 
CCCNC(=O)N1[C@H]2CC[C@@H]1C(C(=O)OC)=C(c1cc3ccccc3o1)C2 | active: 16.4 µM | 
COC(=O)[C@]1(C)CC[C@@]2(C)CC[C@@]3(C)C4=CC=C5C(=CC(=O)C(O)=C5C)[C@@]4(C)CC[C@@]3(C)C2C1 (some centres undefined) | active: 1.03 µM | 
O=P(/C=C1\OCc2ccccc21)(Oc1ccccc1)Oc1ccccc1 | inconclusive: 16.4 µM [inhibitor, single point] | 
O=C1CC(=O)N(c2ccccc2)C(=O)N1 | inactive | 
COc1ccc(-c2cc3nc(C)c(CCC(=O)N4CCN(c5cc(C)ccc5C)CC4)c(C)n3n2)c(OC)c1 | active: 8.2 µM | 
COc1cccc(C(=O)C2CCCN(Cc3ccc4nsnc4c3)C2)c1 (centres undefined) | inconclusive: 20.6 µM [inhibitor, partial curve] | 
CCC(=Nc1ccc(OC)cc1OC)c1c(O)n(C2CCCCC2)c(=O)[nH]c1=O | inconclusive: 18.4 µM [inhibitor, single point] | 
N=C(N)c1c(O)n(C2CCCCC2)c(=O)n(C2CCCCC2)c1=O | inconclusive: 29.1 µM [inhibitor, single point] | 
O=c1c2ccccc2nc(-c2ccco2)n1-c1nccs1 | inconclusive: 29.1 µM [inhibitor, single point] | 
COc1cc2c(c(OC)c1OC)-c1ccc(OC)c(=O)cc1[C@H](NC(C)=O)CC2 | active: 0.0944 µM | 
Clc1cccc(CN2CCCCC2c2cccnc2)c1 (centres undefined) | inconclusive: 29.1 µM [inhibitor, single point] | 
CC1(C)C2C[C@@H](O)[C@]3(C)C(CC[C@@]4(C)[C@H](c5ccoc5)C[C@H]5O[C@]543)[C@@]2(C)[C@@H](O)C[C@H]1O (some centres undefined) |  | inactive: -18.2% [at 9.04 µM]
O=C(COC(=O)c1cccc(O)c1)Nc1ccc(Cl)cc1C(=O)c1ccccc1 | inconclusive: 20.6 µM [inhibitor, single point] | 

SMILES | Potency | activity change, negative = growth inhibition
CN(C)C(=O)On1c(-c2ccccc2)nc2ccc(Cl)cc21 | inconclusive: 18.4 µM [inhibitor, single point] | 
C[C@]12CCC3C(CC[C@]4(O)C[C@@H](O)CC[C@]34C=O)[C@@]1(O)CC[C@@H]2C1=CC(=O)OC1 (some centres undefined) | active: 9.44 µM | 
O=C(c1ccc(Cl)cc1)N1CCC2(CC1)OCCO2 | inactive | 
COc1nn(CSP(=S)(OC)OC)c(=O)s1 | inconclusive: 68.6 µM [inhibitor, single point] | 
CCCCc1nc2ccccc2c(=O)n1-c1cccc(OC)c1 | active: 16.4 µM | 
NCCCCCC(=O)OC1N=C(c2ccccc2Cl)c2cc(Br)ccc2NC1=O (centres undefined) | inconclusive: 18.4 µM [inhibitor, single point] | 
CC(C)CC1C(C#N)=C(N)Oc2c1c(=O)oc1ccccc21 (centres undefined) | inconclusive: 23.1 µM [inhibitor, single point] | 
O=S(=O)(c1ccc(Cl)cc1)N1Cc2cc(Br)ccc2-n2nncc2C1 | active: 20.6 µM | 
CCOc1ccc(NCc2cccn2-c2nnc(N3CCC(C(=O)NCc4ccc(C)cc4)CC3)s2)cc1 | active: 9.2 µM | 
CC(C)CN(CC(C)C)c1ccc(C=C2C(=O)NC(=S)NC2=O)cc1[N+](=O)[O-] | inconclusive: 29.1 µM [inhibitor, single point] | 
CC/C(=N\NC(=S)Nc1ccccc1)c1c(O)[nH]c(=O)[nH]c1=O | inactive | 
Cn1c(=O)oc2cc(S(=O)(=O)NCCN3CCN(c4ccccc4)CC3)ccc21 | inconclusive: 25.9 µM [inhibitor, single point] | 
O=C1CN=C(c2ccccc2)c2cc(Cl)ccc2N1Cc1ccc(Cl)cc1 | inconclusive: 20.6 µM [inhibitor, single point] | 
COC(=O)C1=C(c2cc3ccccc3o2)C[C@@H]2CC[C@H]1N2C | inactive | 
O=C(O)c1ccc(Cl)nc1 | inconclusive: 25.9 µM [inhibitor, single point] | 
CCC1(OC(=O)CN)C(=O)OCc2c1cc1n(c2=O)Cc2cc3ccccc3nc2-1 (centres undefined) | active: 0.164 µM | 
CCN(CC)P(=O)(c1nccn1C)N(CC)CC | inactive | 
Cc1cc(-c2ccc(C)c(S(=O)(=O)N3CCOc4ccc(Cl)cc43)c2)on1 | active: 20.6 µM | 
Cc1ccsc1C(=O)C1CCCN(Cc2ccc(-n3cccn3)cc2)C1 (centres undefined) | active: 20.6 µM | 
O=P1(Nc2ccc(F)cc2)COc2ccccc2OC1 | inactive | 
O=C(Cc1ccccc1)OCC(=O)c1ccc(F)cc1 | inactive | 
O=C(Nc1ccc(Cl)c(C(F)(F)F)c1)[C@@H]1CC=C[C@@H]2CCN(Cc3ccccc3)C(=O)[C@@H]21 | inconclusive: 25.1 µM [inhibitor, single point] and inconclusive: 18.4 µM [inhibitor, single point] | 
Cc1nc(N2CCN(Cc3ccccc3)CC2)nc2c1C(=O)CC(C)C2 (centres undefined) | active: 18.4 µM | 

SMILES | Potency | activity change, negative = growth inhibition
Cc1nc(CCl)cc(=O)[nH]1 | inactive | 
CN1C(=O)/C(=C/c2ccc(Cl)s2)C(=O)NC1=S | active: 7.31 µM | 
COC(=O)C1=C(c2ccccc2OCc2ccccc2)C[C@@H]2CC[C@H]1N2C(=O)NCCOc1ccccc1Cl | inconclusive: 29.1 µM [inhibitor, single point] | 
COc1ccccc1-n1c(/C=C/c2ccccc2)nc2ccccc2c1=O | inconclusive: 14.6 µM [inhibitor, partial curve] | 
O=C(NC(=C(Cl)Cl)P(=O)(c1ccccc1)c1ccccc1)c1ccccc1 | inconclusive: 23.1 µM [inhibitor, single point] | 
O=C(CC[N+](=O)[O-])OCC1OC(O)C(OC(=O)CC[N+](=O)[O-])[C@@H](OC(=O)CC[N+](=O)[O-])C1OC(=O)CC[N+](=O)[O-] (some centres undefined) | inconclusive: 29.1 µM [inhibitor, single point] | 
C=CCOc1c(Cl)cc(CNc2ccc3[nH]c(=O)[nH]c3c2)cc1OC | active: 13 µM | 
COc1cc([C@@H]2c3cc4c(cc3C(O[C@@H]3O[C@@H]5CO[C@@H](C)O[C@H]5[C@H](O)[C@H]3O)C3COC(=O)[C@@H]32)OCO4)cc(OC)c1OP(=O)(O)O (some centres undefined) | active: 335 nM and active: 211 nM | 
CCC(=Nc1ccc2c(c1)CCC2)c1c(O)n(C2CCCCC2)c(=O)[nH]c1=O | active: 29.1 µM | 
C[C@]12CCC3C(CC[C@H]4C[C@H](O)[C@H](O)C[C@]34C)C1CC[C@@H]2O (some centres undefined) | active: 20.6 µM | 
CC1(C)C(O)CC(O)[C@]2(C)C1CC(O)[C@]1(C)C2CC[C@@]2(C)C(c3ccoc3)CC3OC312 (some centres undefined) | inactive | 
Cn1c(CCCC(=O)O)nc2cc(N(CCCl)CCCl)ccc21 | inconclusive: 23.7 µM [inhibitor, partial curve, poor fit] | 
Cc1cccc(-n2c(-c3ccco3)nc3ccccc3c2=O)c1C | active: 8.2 µM | 
O=C(O)c1cccc(N=Nc2c(O)[nH]c(=O)[nH]c2=O)c1 | inconclusive: 29.1 µM [inhibitor, single point] | 
CC(C)COc1ccc(Cc2c(O)[nH]c(=S)[nH]c2=O)cc1 | inactive | 
CCOP(=O)(OCC)c1cc(C)c(O)c(C(C)(C)C)c1 | inconclusive: 20.6 µM [inhibitor, partial curve] | 
Cc1ccc(C(=O)Nc2ccncc2)cc1S(=O)(=O)N1CCCCC1 | active: 23.1 µM | 
COc1ccc(C(=O)Oc2cccc3cccnc23)cc1S(=O)(=O)N1CCOCC1 | inconclusive: 29.1 µM [inhibitor, single point] | 
C=CCc1cc(C=C2C(=O)N(C)C(=O)N(C)C2=O)cc(OCC)c1OCc1ccccc1 | inconclusive: 29.1 µM [inhibitor, single point] | 
C=CCN(CC=C)C(=O)CCN1CC1C (centres undefined) | inconclusive: 11.6 µM [inhibitor, partial curve] | 
c1ccc(N2CCN(c3ncnc4c3nc3n4CCCC3)CC2)cc1 | inconclusive: 25.9 µM [inhibitor, single point] | 
CCN(CC)c1ccc(C=C2C(=O)NC(=S)NC2=O)cc1 | inconclusive: 13 µM [inhibitor, partial curve, poor fit] | 
Cc1nnc(N2CCC(C(=O)NCc3ccc(N(C)C)cc3)CC2)c2nn(-c3ccccc3)c(C)c12 | inconclusive: 25.9 µM [inhibitor, single point] | 
